Substitutions are numbered along the chain they refer to. Names may count otherwise. No constants are given. Whether binding was seen depends on the method and setting. In cells and extracts the contact can be indirect. Some results given as binding are weak or reduced against the parent protein; the word gives no strength. For some assays here: Tags and fused reporters may be left off the sequences shown. Each block holds one binder with its values, some of them ahead of it.
Assays:
[1] = molecular target: T1, Nrd1p-TAP (S. cerevisiae) (UniProt P53617); experiment: co-IP; Nrd1p-TAP or Nrd1ΔCIDp-TAP immunopurified from yeast extracts treated with RNase; eluted by TEV cleavage; western blot
T1 sequence: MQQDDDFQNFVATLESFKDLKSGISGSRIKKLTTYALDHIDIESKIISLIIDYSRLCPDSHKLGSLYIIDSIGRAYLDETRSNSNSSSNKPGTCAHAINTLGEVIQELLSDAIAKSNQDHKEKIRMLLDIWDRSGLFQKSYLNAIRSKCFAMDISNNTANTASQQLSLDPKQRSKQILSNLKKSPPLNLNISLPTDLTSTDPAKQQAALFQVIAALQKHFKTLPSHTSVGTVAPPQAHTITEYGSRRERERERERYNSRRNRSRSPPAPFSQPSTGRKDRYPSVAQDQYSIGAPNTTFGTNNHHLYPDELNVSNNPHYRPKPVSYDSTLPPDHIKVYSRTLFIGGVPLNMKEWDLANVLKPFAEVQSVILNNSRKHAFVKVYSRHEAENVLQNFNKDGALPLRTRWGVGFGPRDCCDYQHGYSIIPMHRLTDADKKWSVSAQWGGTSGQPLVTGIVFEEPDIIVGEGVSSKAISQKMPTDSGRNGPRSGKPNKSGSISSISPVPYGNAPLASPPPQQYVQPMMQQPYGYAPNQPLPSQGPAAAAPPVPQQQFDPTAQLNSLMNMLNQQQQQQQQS

[2] = molecular target: T2, recombinant Trf4-FLAG (S. cerevisiae) (UniProt P53632); experiment: pull-down; recombinant Trf4-FLAG as bait, E. coli extracts expressing the recombinant partners, in the presence of RNase; immunoblot with anti-His or anti-FLAG
T2 sequence: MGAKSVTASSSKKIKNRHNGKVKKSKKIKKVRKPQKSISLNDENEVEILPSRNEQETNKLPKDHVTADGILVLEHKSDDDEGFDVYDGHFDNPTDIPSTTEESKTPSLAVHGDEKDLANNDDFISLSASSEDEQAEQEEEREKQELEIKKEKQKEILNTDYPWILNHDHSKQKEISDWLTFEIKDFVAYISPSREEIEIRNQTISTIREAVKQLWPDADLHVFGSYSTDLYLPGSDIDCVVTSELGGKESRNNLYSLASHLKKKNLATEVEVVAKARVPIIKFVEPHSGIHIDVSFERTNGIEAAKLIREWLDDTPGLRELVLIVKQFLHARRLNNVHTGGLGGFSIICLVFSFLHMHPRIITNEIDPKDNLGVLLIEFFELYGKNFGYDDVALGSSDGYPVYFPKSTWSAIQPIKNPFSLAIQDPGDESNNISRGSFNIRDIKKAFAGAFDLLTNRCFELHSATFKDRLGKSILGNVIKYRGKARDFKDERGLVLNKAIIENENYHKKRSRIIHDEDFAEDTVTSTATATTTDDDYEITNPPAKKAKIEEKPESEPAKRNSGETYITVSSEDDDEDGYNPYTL

[3] = molecular target: T3, recombinant Trf4-FLAG (S. cerevisiae), P53632; experiment: as above; settings: remark: other sources report otherwise
T3 chain: T2 sequence

B1: Trf4p lacking the NIM (trf4ΔNIM) (domain or fragment, UniProt P53632 1-573)
chain: MGAKSVTASSSKKIKNRHNGKVKKSKKIKKVRKPQKSISLNDENEVEILPSRNEQETNKLPKDHVTADGILVLEHKSDDDEGFDVYDGHFDNPTDIPSTTEESKTPSLAVHGDEKDLANNDDFISLSASSEDEQAEQEEEREKQELEIKKEKQKEILNTDYPWILNHDHSKQKEISDWLTFEIKDFVAYISPSREEIEIRNQTISTIREAVKQLWPDADLHVFGSYSTDLYLPGSDIDCVVTSELGGKESRNNLYSLASHLKKKNLATEVEVVAKARVPIIKFVEPHSGIHIDVSFERTNGIEAAKLIREWLDDTPGLRELVLIVKQFLHARRLNNVHTGGLGGFSIICLVFSFLHMHPRIITNEIDPKDNLGVLLIEFFELYGKNFGYDDVALGSSDGYPVYFPKSTWSAIQPIKNPFSLAIQDPGDESNNISRGSFNIRDIKKAFAGAFDLLTNRCFELHSATFKDRLGKSILGNVIKYRGKARDFKDERGLVLNKAIIENENYHKKRSRIIHDEDFAEDTVTSTATATTTDDDYEITNPPAKKAKIEEKPESEPAKRNSGETYITVSSED
- binding [1]: no binding

B5: CID-R28D-His6 (domain or fragment, UniProt P53617 1-153)
chain: MQQDDDFQNFVATLESFKDLKSGISGSDIKKLTTYALDHIDIESKIISLIIDYSRLCPDSHKLGSLYIIDSIGRAYLDETRSNSNSSSNKPGTCAHAINTLGEVIQELLSDAIAKSNQDHKEKIRMLLDIWDRSGLFQKSYLNAIRSKCFAMD
- binding [2]: no binding

B6: Nab3p (protein, UniProt P38996 1-802)
chain: MSDENHNSDVQDIPSPELSVDSNSNENELMNNSSADDGIEFDAPEEEREAEREEENEEQHELEDVNDEEEEDKEEKGEENGEVINTEEEEEEEHQQKGGNDDDDDDNEEEEEEEEDDDDDDDDDDDDEEEEEEEEEEGNDNSSVGSDSAAEDGEDEEDKKDKTKDKEVELRRETLEKEQKDVDEAIKKITREENDNTHFPTNMENVNYDLLQKQVKYIMDSNMLNLPQFQHLPQEEKMSAILAMLNSNSDTALSVPPHDSTISTTASASATSGARSNDQRKPPLSDAQRRMRFPRADLSKPITEEEHDRYAAYLHGENKITEMHNIPPKSRLFIGNLPLKNVSKEDLFRIFSPYGHIMQINIKNAFGFIQFDNPQSVRDAIECESQEMNFGKKLILEVSSSNARPQFDHGDHGTNSSSTFISSAKRPFQTESGDMYNDDNGAGYKKSRRHTVSCNIFVKRTADRTYAIEVFNRFRDGTGLETDMIFLKPRMELGKLINDAAYNGVWGVVLVNKTHNVDVQTFYKGSQGETKFDEYISISADDAVAIFNNIKNNRNNSRPTDYRAMSHQQNIYGAPPLPVPNGPAVGPPPQTNYYQGYSMPPPQQQQQQPYGNYGMPPPSHDQGYGSQPPIPMNQSYGRYQTSIPPPPPQQQIPQGYGRYQAGPPPQPPSQTPMDQQQLLSAIQNLPPNVVSNLLSMAQQQQQQPHAQQQLVGLIQSMQGQAPQQQQQQLGGYSSMNSSSPPPMSTNYNGQNISAKPSAPPMSHQPPPPQQQQQQQQQQQQQQQQPAGNNVQSLLDSLAKLQK
- binding [1]: binds

B8: Dis3p (protein, UniProt Q08162 1-1001)
chain: MSVPAIAPRRKRLADGLSVTQKVFVRSRNGGATKIVREHYLRSDIPCLSRSCTKCPQIVVPDAQNELPKFILSDSPLELSAPIGKHYVVLDTNVVLQAIDLLENPNCFFDVIVPQIVLDEVRNKSYPVYTRLRTLCRDSDDHKRFIVFHNEFSEHTFVERLPNETINDRNDRAIRKTCQWYSEHLKPYDINVVLVTNDRLNREAATKEVESNIITKSLVQYIELLPNADDIRDSIPQMDSFDKDLERDTFSDFTFPEYYSTARVMGGLKNGVLYQGNIQISEYNFLEGSVSLPRFSKPVLIVGQKNLNRAFNGDQVIVELLPQSEWKAPSSIVLDSEHFDVNDNPDIEAGDDDDNNESSSNTTVISDKQRRLLAKDAMIAQRSKKIQPTAKVVYIQRRSWRQYVGQLAPSSVDPQSSSTQNVFVILMDKCLPKVRIRTRRAAELLDKRIVISIDSWPTTHKYPLGHFVRDLGTIESAQAETEALLLEHDVEYRPFSKKVLECLPAEGHDWKAPTKLDDPEAVSKDPLLTKRKDLRDKLICSIDPPGCVDIDDALHAKKLPNGNWEVGVHIADVTHFVKPGTALDAEGAARGTSVYLVDKRIDMLPMLLGTDLCSLKPYVDRFAFSVIWELDDSANIVNVNFMKSVIRSREAFSYEQAQLRIDDKTQNDELTMGMRALLKLSVKLKQKRLEAGALNLASPEVKVHMDSETSDPNEVEIKKLLATNSLVEEFMLLANISVARKIYDAFPQTAMLRRHAAPPSTNFEILNEMLNTRKNMSISLESSKALADSLDRCVDPEDPYFNTLVRIMSTRCMMAAQYFYSGAYSYPDFRHYGLAVDIYTHFTSPIRRYCDVVAHRQLAGAIGYEPLSLTHRDKNKMDMICRNINRKHRNAQFAGRASIEYYVGQVMRNNESTETGYVIKVFNNGIVVLVPKFGVEGLIRLDNLTEDPNSAAFDEVEYKLTFVPTNSDKPRDVYVFDKVEVQVRSVMDPITSKRKAELLLK
- binding [1]: binds weakly

Next, values leading:

- binding [2]: binds
B2: recombinant His-tagged Nrd1 (protein, UniProt P53617 1-575)
chain: T1 sequence

- binding [2]: binds
B3: recombinant CID-His6 (domain or fragment, UniProt P53617 1-153)
chain: B5 chain with D28R

- binding [2]: no binding
B4: rCID-S25D-His6 (domain or fragment, UniProt P53617 1-153)
chain: B5 chain with S25D, D28R

- binding [3]: binds
B7: recombinant Rrp6-Halo, Q12149 1-733 (protein)
chain: MTSENPDVLLSRVINVVRAASSLASQDVDFYKNLDRGFSKDLKSKADKLADMANEIILSIDEHHESFELKEEDISDLWNNFGNIMDNLLEMSDHSLDKLNCAINSKSRGSDLQYLGEFSGKNFSPTKRVEKPQLKFKSPIDNSESHPFIPLLKEKPNALKPLSESLRLVDDDENNPSHYPHPYEYEIDHQEYSPEILQIREEIPSKSWDDSVPIWVDTSTELESMLEDLKNTKEIAVDLEHHDYRSYYGIVCLMQISTRERDYLVDTLKLRENLHILNEVFTNPSIVKVFHGAFMDIIWLQRDLGLYVVGLFDTYHASKAIGLPRHSLAYLLENFANFKTSKKYQLADWRIRPLSKPMTAYARADTHFLLNIYDQLRNKLIESNKLAGVLYESRNVAKRRFEYSKYRPLTPSSEVYSPIEKESPWKILMYQYNIPPEREVLVRELYQWRDLIARRDDESPRFVMPNQLLAALVAYTPTDVIGVVSLTNGVTEHVRQNAKLLANLIRDALRNIKNTNEEATPIPSSETKADGILLETISVPQIRDVMERFSVLCNSNISKSRAKPVTNSSILLGKILPREEHDIAYSKDGLPNKVKTEDIRIRAQNFKSALANLEDIIFEIEKPLVVPVKLEEIKTVDPASAPNHSPEIDNLDDLVVLKKKNIQKKQPAKEKGVTEKDAVDYSKIPNILSNKPGQNNRQQKKRRFDPSSSDSNGPRAAKKRRPAAKGKNLSFKR

Reference: PMC4186968, “Molecular Basis for Coordinating Transcription Termination with Noncoding RNA Degradation” (Molecular Cell, 2014)
